# The other results are listed elsewhere or left out.
# B1: Banana lectin (Musa acuminata) (protein)
# chain: MNGAIKVGAWGGNGGSAFDMGPAYRIISVKIFSGDVVDGVDVTFTYYGKTETRHYGGSGGTPHEIVLQEGEYLVGMAGEVANYTGAVVLGKLGFSTNKKAYGPFGNTGGTPFSLPIAAGKISGFFGRGGKFLDAIGVYLEPLEHHHHHH
# Tests used:
# Assay in all cases: glycan array binding signal (z-score within array); higher = stronger binding
# Conditions in all cases: glycan notation: IUPAC condensed, linker removed; mutation: H84T
# [1] = target: Gal(b1-4)GlcNAc(b1-3)Gal(b1-4)GlcNAc(b1-2)Man(a1-3)[Gal(b1-4)GlcNAc(b1-3)Gal(b1-4)GlcNAc(b1-2)Man(a1-6)]Man(b1-4)GlcNAc(b1-4)[Fuc(a1-6)]GlcNAc
# In short: (§1)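 From the Consortium for Functional Glycomics database, 3228 arrays were curated, keeping only those whose protein sequence was available. Binding is given as a within-array Z-score averaged across arrays sharing a protein sequence and across linkers. Negative Z-scores can be read as non-binding.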
# [2] = target: Gal(b1-4)GlcNAc(b1-3)Gal(b1-4)GlcNAc(b1-2)[Gal(b1-4)GlcNAc(b1-3)Gal(b1-4)GlcNAc(b1-6)]Man(a1-6)[Gal(b1-4)GlcNAc(b1-3)Gal(b1-4)GlcNAc(b1-2)Man(a1-3)]Man(b1-4)GlcNAc(b1-4)GlcNAc
# In short: as §1
# [3] = target: Gal(b1-4)GlcNAc(b1-3)Gal(b1-4)GlcNAc(b1-2)[Gal(b1-4)GlcNAc(b1-3)Gal(b1-4)GlcNAc(b1-6)]Man(a1-6)[Gal(b1-4)GlcNAc(b1-3)Gal(b1-4)GlcNAc(b1-2)Man(a1-3)]Man(b1-4)GlcNAc(b1-4)[Fuc(a1-6)]GlcNAc
# In short: as §1
# [4] = target: Gal(b1-4)GlcNAc(b1-3)Gal(b1-4)GlcNAc(b1-3)Gal(b1-4)GlcNAc
# In short: as §1
# [5] = target: Gal(b1-4)GlcNAc(b1-3)Gal(b1-4)GlcNAc(b1-3)Gal(b1-4)GlcNAc(b1-2)Man(a1-3)[Gal(b1-4)GlcNAc(b1-3)Gal(b1-4)GlcNAc(b1-3)Gal(b1-4)GlcNAc(b1-2)Man(a1-6)]Man(b1-4)GlcNAc(b1-4)GlcNAc
# In short: as §1
# [6] = target: Gal(b1-4)GlcNAc(b1-3)Gal(b1-4)GlcNAc(b1-3)Gal(b1-4)GlcNAc(b1-2)Man(a1-3)[Gal(b1-4)GlcNAc(b1-3)Gal(b1-4)GlcNAc(b1-3)Gal(b1-4)GlcNAc(b1-2)Man(a1-6)]Man(b1-4)GlcNAc(b1-4)[Fuc(a1-6)]GlcNAc
# In short: as §1
# [7] = target: Gal(b1-4)GlcNAc(b1-3)Gal(b1-4)GlcNAc(b1-3)Gal(b1-4)GlcNAc(b1-2)[Gal(b1-4)GlcNAc(b1-3)Gal(b1-4)GlcNAc(b1-3)Gal(b1-4)GlcNAc(b1-6)]Man(a1-6)[Gal(b1-4)GlcNAc(b1-3)Gal(b1-4)GlcNAc(b1-3)Gal(b1-4)GlcNAc(b1-2)Man(a1-3)]Man(b1-4)GlcNAc(b1-4)[Fuc(a1-6)]GlcNAc
# In short: as §1
# [8] = target: Gal(b1-4)GlcNAc(b1-3)Gal(b1-4)GlcNAc(b1-3)Gal(b1-4)GlcNAc(b1-3)Gal(b1-4)GlcNAc(b1-2)Man(a1-3)[Gal(b1-4)GlcNAc(b1-3)Gal(b1-4)GlcNAc(b1-3)Gal(b1-4)GlcNAc(b1-3)Gal(b1-4)GlcNAc(b1-2)Man(a1-6)]Man(b1-4)GlcNAc(b1-4)GlcNAc
# In short: as §1
# [9] = target: Gal(b1-4)GlcNAc(b1-3)Gal(b1-4)GlcNAc(b1-3)Gal(b1-4)GlcNAc(b1-3)Gal(b1-4)GlcNAc(b1-2)Man(a1-3)[Gal(b1-4)GlcNAc(b1-3)Gal(b1-4)GlcNAc(b1-3)Gal(b1-4)GlcNAc(b1-3)Gal(b1-4)GlcNAc(b1-2)Man(a1-6)]Man(b1-4)GlcNAc(b1-4)[Fuc(a1-6)]GlcNAc
# In short: as §1
# [10] = target: Gal(b1-4)GlcNAc(b1-3)Gal(b1-4)GlcNAc(b1-3)Gal(b1-4)GlcNAc(b1-3)Gal(b1-4)GlcNAc(b1-2)[Gal(b1-4)GlcNAc(b1-3)Gal(b1-4)GlcNAc(b1-3)Gal(b1-4)GlcNAc(b1-3)Gal(b1-4)GlcNAc(b1-6)]Man(a1-6)[Gal(b1-4)GlcNAc(b1-3)Gal(b1-4)GlcNAc(b1-3)Gal(b1-4)GlcNAc(b1-3)Gal(b1-4)GlcNAc(b1-2)Man(a1-3)]Man(b1-4)GlcNAc(b1-4)[Fuc(a1-6)]GlcNAc
# In short: as §1
# [11] = target: Gal(b1-4)GlcNAc(b1-3)Gal(b1-4)GlcNAc(b1-3)Gal(b1-4)GlcNAc(b1-3)Gal(b1-4)GlcNAc(b1-3)Gal(b1-4)GlcNAc(b1-2)Man(a1-3)[Gal(b1-4)GlcNAc(b1-3)Gal(b1-4)GlcNAc(b1-3)Gal(b1-4)GlcNAc(b1-3)Gal(b1-4)GlcNAc(b1-3)Gal(b1-4)GlcNAc(b1-2)Man(a1-6)]Man(b1-4)GlcNAc(b1-4)GlcNAc
# In short: as §1
# [12] = target: Gal(b1-4)GlcNAc(b1-3)Gal(b1-4)GlcNAc(b1-3)Gal(b1-4)GlcNAc(b1-3)Gal(b1-4)GlcNAc(b1-3)Gal(b1-4)GlcNAc(b1-2)Man(a1-3)[Gal(b1-4)GlcNAc(b1-3)Gal(b1-4)GlcNAc(b1-3)Gal(b1-4)GlcNAc(b1-3)Gal(b1-4)GlcNAc(b1-3)Gal(b1-4)GlcNAc(b1-2)Man(a1-6)]Man(b1-4)GlcNAc(b1-4)[Fuc(a1-6)]GlcNAc
# In short: as §1
# [13] = target: Gal(b1-4)GlcNAc(b1-3)Gal(b1-4)GlcNAc(b1-3)Gal(b1-4)GlcNAc(b1-3)Gal(b1-4)GlcNAc(b1-3)Gal(b1-4)GlcNAc(b1-2)[Gal(b1-4)GlcNAc(b1-3)Gal(b1-4)GlcNAc(b1-3)Gal(b1-4)GlcNAc(b1-3)Gal(b1-4)GlcNAc(b1-3)Gal(b1-4)GlcNAc(b1-6)]Man(a1-6)[Gal(b1-4)GlcNAc(b1-3)Gal(b1-4)GlcNAc(b1-3)Gal(b1-4)GlcNAc(b1-3)Gal(b1-4)GlcNAc(b1-3)Gal(b1-4)GlcNAc(b1-2)Man(a1-3)]Man(b1-4)GlcNAc(b1-4)[Fuc(a1-6)]GlcNAc
# In short: as §1
# [14] = target: Gal(b1-4)GlcNAc(b1-3)Gal(b1-4)GlcNAc(b1-3)Gal(b1-4)GlcNAc(b1-3)Gal(b1-4)GlcNAc(b1-3)Gal(b1-4)GlcNAc(b1-3)Gal(b1-4)GlcNAc(b1-2)Man(a1-3)[Gal(b1-4)GlcNAc(b1-3)Gal(b1-4)GlcNAc(b1-3)Gal(b1-4)GlcNAc(b1-3)Gal(b1-4)GlcNAc(b1-3)Gal(b1-4)GlcNAc(b1-3)Gal(b1-4)GlcNAc(b1-2)Man(a1-6)]Man(b1-4)GlcNAc(b1-4)GlcNAc
# In short: as §1
# [15] = target: Gal(b1-4)GlcNAc(b1-3)Gal(b1-4)GlcNAc(b1-3)GalNAc
# In short: as §1
# [16] = target: Gal(b1-4)GlcNAc(b1-3)Gal(b1-4)GlcNAc(b1-3)[Gal(b1-4)GlcNAc(b1-3)Gal(b1-4)GlcNAc(b1-6)]GalNAc
# In short: as §1
# [17] = target: Gal(b1-4)GlcNAc(b1-3)Gal(b1-4)GlcNAc(b1-6)[Gal(b1-3)]GalNAc
# In short: as §1
# [18] = target: Gal(b1-4)GlcNAc(b1-3)Gal(b1-4)[Fuc(a1-3)]GlcNAc(b1-3)Gal(b1-4)[Fuc(a1-3)]GlcNAc
# In short: as §1
# [19] = target: Gal(b1-4)GlcNAc(b1-3)GalNAc
# In short: as §1
# [20] = target: Gal(b1-4)GlcNAc(b1-3)[Fuc(a1-3)GlcNAc(b1-6)]Gal(b1-4)Glc
# In short: as §1
# [21] = target: Gal(b1-4)GlcNAc(b1-3)[Gal(b1-4)GlcNAc(b1-6)]Gal(b1-4)GlcNAc
# In short: as §1
# [22] = target: Gal(b1-4)GlcNAc(b1-3)[GlcNAc(b1-6)]Gal(b1-4)GlcNAc
# In short: as §1
# [23] = target: Gal(b1-4)GlcNAc(b1-6)Gal(b1-4)GlcNAc
# In short: as §1
# [24] = target: Gal(b1-4)GlcNAc(b1-6)GalNAc
# In short: as §1
# [25] = target: Gal(b1-4)GlcNAc(b1-6)[Gal(b1-3)]GalNAc
# In short: as §1
# [26] = target: Gal(b1-4)GlcNAc(b1-6)[Gal(b1-4)GlcNAc(b1-3)]GalNAc
# In short: as §1
# Gal(b1-4)GlcNAc6P = target: Gal(b1-4)GlcNAc6P
# In short: as §1
# Gal(b1-6)Gal = target: Gal(b1-6)Gal
# In short: as §1
# Gal3S(b1-3)GalNAc = target: Gal3S(b1-3)GalNAc
# In short: as §1
# Gal3S(b1-3)GlcNAc = target: Gal3S(b1-3)GlcNAc
# In short: as §1
# [27] = target: Gal3S(b1-3)[Fuc(a1-4)]GlcNAc
# In short: as §1
# Gal3S(b1-4)Glc = target: Gal3S(b1-4)Glc
# In short: as §1
# Gal3S(b1-4)Glc6S = target: Gal3S(b1-4)Glc6S
# In short: as §1
# Gal3S(b1-4)GlcNAc = target: Gal3S(b1-4)GlcNAc
# In short: as §1
# [28] = target: Gal3S(b1-4)[Fuc(a1-3)]Glc6S
# In short: as §1
# [29] = target: Gal3S(b1-4)[Fuc(a1-3)]GlcNAc
# In short: as §1
# [30] = target: Gal3S(b1-4)[Fuc(a1-3)]GlcNAc6S
# In short: as §1
# Gal3S4S(b1-4)GlcNAc = target: Gal3S4S(b1-4)GlcNAc
# In short: as §1
# Gal3S6S(b1-4)GlcNAc = target: Gal3S6S(b1-4)GlcNAc
# In short: as §1
# Gal3S6S(b1-4)GlcNAc6S = target: Gal3S6S(b1-4)GlcNAc6S
# In short: as §1
# Gal4S(b1-4)GlcNAc = target: Gal4S(b1-4)GlcNAc
# In short: as §1
# Gal4S6S(b1-4)GlcNAc = target: Gal4S6S(b1-4)GlcNAc
# In short: as §1
# Gal6P(b1-4)GlcNAc = target: Gal6P(b1-4)GlcNAc
# In short: as §1
# Gal6S(b1-3)GlcNAc = target: Gal6S(b1-3)GlcNAc
# In short: as §1
# Gal6S(b1-3)GlcNAc6S = target: Gal6S(b1-3)GlcNAc6S
# In short: as §1
binder,measurement,setting,value
B1,glycan array binding signal (z-score),[1],-0.145
same,glycan array binding signal (z-score),[2],-0.045
same,glycan array binding signal (z-score),[3],-0.099
same,glycan array binding signal (z-score),[4],-0.166
same,glycan array binding signal (z-score),[5],-0.133
same,glycan array binding signal (z-score),[6],-0.097
same,glycan array binding signal (z-score),[7],-0.153
same,glycan array binding signal (z-score),[8],-0.165
same,glycan array binding signal (z-score),[9],-0.167
same,glycan array binding signal (z-score),[10],-0.109
same,glycan array binding signal (z-score),[11],-0.155
same,glycan array binding signal (z-score),[12],-0.129
same,glycan array binding signal (z-score),[13],-0.137
same,glycan array binding signal (z-score),[14],-0.092
same,glycan array binding signal (z-score),[15],-0.152
same,glycan array binding signal (z-score),[16],-0.141
same,glycan array binding signal (z-score),[17],-0.132
same,glycan array binding signal (z-score),[18],-0.182
same,glycan array binding signal (z-score),[19],-0.189
same,glycan array binding signal (z-score),[20],-0.197
same,glycan array binding signal (z-score),[21],-0.171
same,glycan array binding signal (z-score),[22],-0.216
same,glycan array binding signal (z-score),[23],-0.206
same,glycan array binding signal (z-score),[24],-0.152
same,glycan array binding signal (z-score),[25],-0.173
same,glycan array binding signal (z-score),[26],-0.166
same,glycan array binding signal (z-score),Gal(b1-4)GlcNAc6P,-0.137
same,glycan array binding signal (z-score),Gal(b1-6)Gal,-0.198
same,glycan array binding signal (z-score),Gal3S(b1-3)GalNAc,-0.183
same,glycan array binding signal (z-score),Gal3S(b1-3)GlcNAc,-0.162
same,glycan array binding signal (z-score),[27],-0.185
same,glycan array binding signal (z-score),Gal3S(b1-4)Glc,-0.169
same,glycan array binding signal (z-score),Gal3S(b1-4)Glc6S,-0.165
same,glycan array binding signal (z-score),Gal3S(b1-4)GlcNAc,-0.179
same,glycan array binding signal (z-score),[28],-0.184
same,glycan array binding signal (z-score),[29],-0.171
same,glycan array binding signal (z-score),[30],-0.177
same,glycan array binding signal (z-score),Gal3S4S(b1-4)GlcNAc,-0.164
same,glycan array binding signal (z-score),Gal3S6S(b1-4)GlcNAc,-0.154
same,glycan array binding signal (z-score),Gal3S6S(b1-4)GlcNAc6S,-0.119
same,glycan array binding signal (z-score),Gal4S(b1-4)GlcNAc,-0.19
same,glycan array binding signal (z-score),Gal4S6S(b1-4)GlcNAc,-0.187
same,glycan array binding signal (z-score),Gal6P(b1-4)GlcNAc,-0.197
same,glycan array binding signal (z-score),Gal6S(b1-3)GlcNAc,-0.185
same,glycan array binding signal (z-score),Gal6S(b1-3)GlcNAc6S,-0.174

# Reference: the supplement of paper PMC8728848
